Test results reported in PubChem BioAssay AID1508623 (National Center for Advancing Translational Sciences (NCATS), 2021).
Among all 48,000 compounds or so, about 450 (0.94%) were called active. The inconclusive results got no clear call from the source; some entries with a clear call stand among them for comparison. Calls come from the whole dose curve; as a rule, active = well fitted inhibition curve with a large enough effect; inconclusive = small, poorly fitted or top-dose-only effect; inactive = no such curve, though single readings can be large or run the other way. Potencies of inconclusive entries are doubtful fits and often do not repeat.

Assay: Primary qHTS for Identification of Small Molecule Inhibitors of Huntingtin Promoter Activity; note: nearly all actives have a fitted effect of over 50% in size
Conditions: HEK293 HTT promoter firefly luciferase reporter (activity 0% = vehicle and -100% = no light), 24 h; series mostly up to 57.5 µM
How it was run: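 HEK293 luciferase promoter-reporter cells (2,500/well) plated 24 h, then compounds added at up to 57.5 uM final for 24 h at 37 °C. Firefly luminescence by Dual-Glo, normalized to vehicle (0%) and zero RLU (-100%).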
Potency is the fitted concentration of half-maximal effect; tags give direction and shape of the fitted curve.

Question: Which Potency does the source give for `CCCn1c2ccccc2c2cnn(CC(=O)N(CCCOC)Cc3ccco3)c(=O)c21` here?
Answer: Its Potency is inconclusive: 15.8 µM [inhibitor, single point].

Question: With `COc1cc(NC(=O)CSc2ncccc2C(=O)OC(C)C)cc(OC)c1` as the molecule, how does the Potency read?
Answer: The Potency was inconclusive: 39.8 µM [inhibitor, single point].

Question: Which Potency does the source give for `CCN1C(C(=O)c2ccccc2)=C(OC(=O)c2ccccc2OC)c2ccccc2S1(=O)=O` here?
Answer: The Potency was inconclusive: 31.6 µM [inhibitor, single point].

Question: For `CCOc1ccc(-c2nc(CSCC(=O)NCc3ccc(Cl)cc3)c(C)o2)cc1`, which Potency is on record?
Answer: Its Potency is inconclusive: 10 µM [inhibitor, partial curve, poor fit].

Question: For `COc1cc(OC)c(NS(=O)(=O)c2ccc3c(c2)CCCN3C(C)=O)cc1Cl`, which Potency is on record?
Answer: The Potency was inconclusive: 25.1 µM [inhibitor, single point].

Question: With `Cc1ccc(NC(=O)CSc2nc3ccccc3nc2N2CCOCC2)cc1` as the molecule, how does the Potency read?
Answer: The Potency was inconclusive: 39.8 µM [inhibitor, single point].

Question: Which Potency does the source give for `CCOC(=O)c1oc2ccc(S(=O)(=O)n3nc(-c4ccc(Br)cc4)cc3N)cc2c1C` here?
Answer: The Potency was inconclusive: 12.6 µM [inhibitor, partial curve].

Question: Which Potency does the source give for `O=C(Cc1ccccc1)NCCc1csc2nc(-c3ccc(Cl)cc3)nn12` here?
Answer: The Potency was inconclusive: 35.5 µM [inhibitor, single point].

Question: With `COc1ccccc1Nc1nn2c(=O)c3ccc(C(=O)N4CCCC(C)C4)cc3nc2s1` (configuration not stated) as the molecule, how does the Potency read?
Answer: The Potency was inconclusive: 39.8 µM [inhibitor, single point].

Question: For `COc1ccc(C2CC(=O)N(Cc3cccc(F)c3)c3ccccc3S2)cc1` (configuration not stated), which Potency is on record?
Answer: Its Potency is inconclusive: 25.1 µM [inhibitor, partial curve].

Question: With `COc1ccc(-c2nn3c(-c4ccccc4C)nnc3c3ccccc23)cc1` as the molecule, how does the Potency read?
Answer: The Potency was inconclusive: 28.2 µM [inhibitor, single point].

Question: For `CCOCCCNc1ncnc2onc(C)c12`, which Potency is on record?
Answer: The Potency was “inactive”.

Question: With `Cc1cccc(NC(=O)Nc2nnc(N(C)Cc3ccccc3)s2)c1` as the molecule, how does the Potency read?
Answer: The Potency was inconclusive: 20 µM [inhibitor, partial curve, poor fit].

Question: With `CCCc1cnc2c(c1SCC(=O)Nc1ccc(C)c(Cl)c1)c(=O)n(C)c(=O)n2C` as the molecule, how does the Potency read?
Answer: Its Potency is inconclusive: 28.2 µM [inhibitor, partial curve, poor fit].

Question: With `Cc1ccccc1OCC(=O)Nc1cccc(C(=O)OCc2cc(=O)n3c(C)csc3n2)c1` as the molecule, how does the Potency read?
Answer: Its Potency is inconclusive: 39.8 µM [inhibitor, partial curve, poor fit].

Question: For `Cc1ccc(S(=O)(=O)Cc2ccc(C(=O)N3CCN(c4cccc(Cl)c4)CC3)o2)cc1`, which Potency is on record?
Answer: The Potency was inconclusive: 8.91 µM [inhibitor, partial curve].

Question: Which Potency does the source give for `CCOc1ccc(-c2c(C)nn3c(C)c(C(=O)NCCc4ccc(Cl)cc4)cnc23)cc1OCC` here?
Answer: Its Potency is inconclusive: 25.1 µM [inhibitor, partial curve, poor fit].

Question: With `COC(=O)c1ccccc1NC(=O)c1cc2cc(C)ccc2n1C` as the molecule, how does the Potency read?
Answer: The Potency was inconclusive: 11.2 µM [inhibitor, partial curve, poor fit].

Question: For `CCc1nc2cccnc2n1-c1ccc(CC(=O)Nc2cccc(C)c2C)cc1`, which Potency is on record?
Answer: The Potency was inconclusive: 14.1 µM [inhibitor, partial curve, poor fit].

Question: Which Potency does the source give for `CCC1=Nc2cc(C(=O)NCCN(CC)CC)ccc2Sc2ccccc21` here?
Answer: Its Potency is “inactive”.

Question: With `Cc1ccc(NC(=O)c2cc(S(=O)(=O)N3CCc4ccccc43)cn2C)c(Cl)c1` as the molecule, how does the Potency read?
Answer: The Potency was inconclusive: 22.4 µM [inhibitor, partial curve, poor fit].

Question: Which Potency does the source give for `CCc1cccc(NC(=O)C2CCC(CNS(=O)(=O)c3ccc(Br)s3)CC2)c1` (configuration not stated) here?
Answer: Its Potency is inconclusive: 39.8 µM [inhibitor, single point].

Question: Which Potency does the source give for `Cc1ccc(C)c(S(=O)(=O)c2nnn3c2nc(NC2CCCCC2)c2sccc23)c1` here?
Answer: The Potency was inconclusive: 39.8 µM [inhibitor, single point].

Question: For `Cc1ccc(C)c(N2CCN(C(=O)NCc3noc4ccc(C)cc34)CC2)c1`, which Potency is on record?
Answer: Its Potency is inconclusive: 28.2 µM [inhibitor, single point].

Question: Which Potency does the source give for `CC1CCN(S(=O)(=O)c2ccc3c(ccn3CCC(=O)NCc3ccccc3F)c2)CC1` here?
Answer: The Potency was inconclusive: 44.7 µM [inhibitor, partial curve, poor fit].

Question: Which Potency does the source give for `Cc1sc2c(c1C)c(=O)n(Cc1ccccc1)c(=O)n2Cc1ccc(F)cc1` here?
Answer: The Potency was “inactive”.

Question: For `O=C(Nc1ccc2c(c1)N(C1CCCC1)C(=O)c1ccccc1S2)c1ccccc1F`, which Potency is on record?
Answer: Its Potency is inconclusive: 15.8 µM [inhibitor, single point].

Question: For `CCOc1ccc(NC(=O)c2ccc3c(c2)CCN3S(=O)(=O)CC)cc1`, which Potency is on record?
Answer: The Potency was inconclusive: 39.8 µM [inhibitor, single point].

Question: For `COc1ccc(-c2cc(-c3ccccc3)nc3c2COc2ccc(F)cc2-3)cc1`, which Potency is on record?
Answer: Its Potency is “inactive”.

Question: With `Cc1ccc(S(=O)(=O)N2CCCc3cc(NS(=O)(=O)c4cc(C)ccc4C)ccc32)cc1` as the molecule, how does the Potency read?
Answer: The Potency was inconclusive: 31.6 µM [inhibitor, partial curve, poor fit].

Question: Which Potency does the source give for `Cc1cccc(NS(=O)(=O)c2ccc3[nH]c4c(c3c2)CCCCCC4)c1` here?
Answer: The Potency was inconclusive: 25.1 µM [inhibitor, partial curve, poor fit].

Question: With `COc1ccc2sc(N(Cc3cccnc3)C(=O)C3CCCCC3)nc2c1` as the molecule, how does the Potency read?
Answer: The Potency was inconclusive: 25.1 µM [inhibitor, partial curve].

Question: For `Cc1nn(-c2ccc(F)cc2)c(-n2cccc2)c1C(=O)NCCc1ccc(Cl)cc1`, which Potency is on record?
Answer: The Potency was inconclusive: 25.1 µM [inhibitor, partial curve].

Question: Which Potency does the source give for `O=C(C1CCN(S(=O)(=O)c2cccc3nonc23)CC1)N1CCN(c2cccc(Cl)c2)CC1` here?
Answer: The Potency was inconclusive: 22.4 µM [inhibitor, single point].

Question: With `Cc1ccc(Cn2c(=O)c3ccccc3n3c(-c4cccc(O)c4)nnc23)cc1` as the molecule, how does the Potency read?
Answer: The Potency was inconclusive: 31.6 µM [inhibitor, partial curve, poor fit].

Question: With `COc1cccc(CNC(=O)c2ccc(-c3nc(COc4ccccc4)c(C)o3)cc2)c1` as the molecule, how does the Potency read?
Answer: The Potency was inconclusive: 31.6 µM [inhibitor, partial curve, poor fit].

Question: With `Cc1ccc(CCNC(=O)c2cc3c(s2)-c2c(C)cccc2OC3)cc1` as the molecule, how does the Potency read?
Answer: The Potency was “inactive”.
